# Results from the RNAGym collection of RNA variant scans (doi:10.1093/nar/gkz1192).
# Read counts are not given, so values of variants with three or more changes are uncertain.
# B1: CPEB3 Ribozyme (parent)
# chain: UAACAGGGGGCCACAGCAGAAGCGUUCACGUCGCAGCCCCUGUCAGAUUCUGGUGAAUCUGCGAAUUCUGCUGUAUAUCUC
# Variants of: B1
# Assay: self-cleavage, relative activity (ratio to wild type); higher = more cleavage; in vitro, sequencing
# Outline: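 For each CPEB3 ribozyme variant, relative activity is its cleaved/total read fraction divided by the unmutated ribozyme's. Barcoded error-prone PCR libraries were transcribed by T7 RNA polymerase (5 hours, 37°C) and held in DNase I for 15 min before an EDTA stop, with cleavage occurring throughout. Template-switching reverse transcription and Illumina sequencing were used to read the RNAs. A 5-read minimum applied, and results are the mean of three batches.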
row,Variant,self-cleavage
1,UAACAGCGGGCCACAGCAGAAGCGUUCACGUCGCAGCCCCUGUCAGAUUCUGGUUAAUCUGCGAAUUCUGCCGUAUAUCUC,0.31
2,UAACAGCGGGCCACAGCAGGGGCGUUCACGUCGCAGCCCCUGGCAGAUUCUGGUGAAUCUGCGAAUUCUGCUGUAUAUCUC,0.41
3,UAACAGCGGGCCACAGCAGAAGCGUUCACGUCGCCGCCCCUGUCAGAUUCUGGCGAAUCUGCGAACUCUGCAGUAUAUCUC,0.09
4,UAACAGCGGGCCACAGCAGAAGCGUUCACGUUGCAGCCCCUGUCAGAUUCUGGUAAAUCUGCGAAUUCUGCUGUAUAUCUC,0.15
5,UAACAGCGGGCCACAGCAGAAGCGUUCACGUCGCAGCCCCUGUCAGAUCCUGGUGAUUCUGCGGAUCCUGCUGUAUAUCUC,0.07
6,UAACAGCGUGCCACAGCAGAAGCGUUCACGUCGCAGCCCCUGUCAGAUUCUGGUGAAUCUGCGAAUUCUGCUGUUUAUCUC,0.32
7,UAACAGCGGGCCACAGCAGAAGCGAUCACGUCUCCGCCCCUGUCAGAUUCUGGUGAAUCUGUGAAUUCUGCGGUAUAUCUC,0.08
8,UAACAGCGGGCCGCAGCAGAAGCGUUCACGUCGCAGCCCCUGCCAGAUUCUGGUGAAUCUGCGAAUUCUGCUGUAUAUCUC,0.42
9,UAACAGAGGGCCACAGCAGAAGCGUUCACGUCGCAGCCCCUGUCAGAUUCAGGUGAAUCUGCGAAUUCUGCUAUAUAUCUC,0.09
10,UAACAGCGGGCCACAGCAGAAGCGUCCACGUCGCAGCCCCCGUCAGAUUCUGGUGAAUCUCCGAACUCAGCUGUAUAUCUC,0.25
11,UAACAGCGGACCACAGCUGAAGCGUUCACGUCGCAGCCCCUGUCAGAUUCUGGUGAAUCUGCGAAUUCUGCCGUGUAUCUC,0.38
12,UAACAGCGGGCCACAGCGGAAGCGUUCACGUCGCAGCACCUGUCAGAUUCUGGUGAAUCUGCGAAUUCUGCUGUAUAUCUC,0.21
13,UAACAGCGGGCCACGGCAGAAGCGUUCACGCCUCAGCCCCUGUCAGAUUCUGGUGAGUCUGCGAAUUCUGCUGUAUAUCUC,0.27
14,UAACAGCGGGCCACAGCAGAAGCGUCCACGUCGCAGCCCCUGUCAGAUUCUGGCGAAUCUGCGAAUUCUGCUGUAUAUCUC,0.28
15,UAACAGCAGGCCGCAGCAGAAGCGUUCACGUCGCAGCCCCUGUCAGAUUCUGGUGAAUCUGCGAAUUCUGCUGAAUAUCUC,0.64
16,UAACAGCGGGCCACAGCAGAAGCGUUCACGUCGCAGCCCCUGUCAGACUCUGGUGAAUCUGCGAAUUCAGCUGUAUAUCUC,0.05
17,UAACAGCGGGCCGCAGCAGUAGCGUUCACGUCGCAGCCCCUGUCAGAUUCUGGUGAAUCAGCGAAUUCUGCUGUAUAUCUC,0.08
18,UAACAGAGGGCCACAGCAGAAGCGUUCACGUCGCAGCCCCUGUCAGAGUCUGGUGAAUCCGCGAAUUCCGCUGUAUAUCUC,0.13
19,UAACAGAGGGCCACAGCAGAAGCGUUCACGUCGCAGCCCCUGUCAGAUUCCGGUGAAUCUGCGGAUUCUGCUGUAUAUCUC,0.06
20,UAACAGCGGGCCACAGCAGAAGCGUUCACGUCGCAGCCCCUGUCAGAUUCUGGUGAACCUGCGAACUCUGCUGUAUAUCUC,0.05
21,UAACAGCGGGCCACAGCAGAAGCGUUCACGUCGCAGCCCCUGUCAGAUUCUGGUGAAUCCGCGGAUCCUGCUGUAUAUCUC,0.19
22,UAACAGCGGGCCGCAGCAGAAGCGUUCACGUCGCAGCCCCUGCCAGAUUCUGGUGGAUCUGCGAAUUCUGCUGUAUAUCUC,0.05
23,UAACAGAGGGCCACAGCAGAAGCGUUCACGUCGCAGCCCCUGUCAGAUUCUGGCAAAUCUGCGAAUUCAGCUGCAUAUCUC,0.03

row,Variant,self-cleavage
1,UAACAGCGGGCCACAGCAGAAGCGUCCACGUCGCAGCCCCUGUCAGAUUCUGGUGAAUCUGCGAAAUCUGCUGUAUAUCUC,0.18
2,UAACAGCGGGCCACAGCAAAAGCGUUCACGUCGCAGCCCCCGCCAGAUUCUGGUGAAUCCGCGAAUUCUGCUGUAUAUCUC,0.19
3,UAACAGCGGGCCACAGCGGAAGCGUUCACGUCGCAGCCCCCGUCAGAUUCUGGUGGAUCUGCGAAUUCUGCUGUAUAUCUC,0.34
4,UAACAGCGGGCCACAGCAGAAGCGUUCACGUCGCGGCCCCUGUCAGACUCUGGUCAAUCUGCGAAUUCUGCUGUAUAUCUC,0.3
5,UAACAGAGGGCCACAGCAGAAGCGUUCACGUCGCAGCCCCUGUCAGAUUCUGGUGAAUCUGCGAACUCUGCUGCAUAUCUC,0.22
6,UAACAGAGGGCCACAGCAGAAGCGUUCACGUCGCAGCCCCUGUCAGAUCCUGGUGAAUCUGCGAAUUCUGCAGUAUAUCUC,0.06
7,UAACAGCGGGCCACAGCAGAAGCGUACACGUCGCAGCCCCUGUCAGAUUCUGGUGAAUCUGCGAAUUUUGCUGUAUAUCUC,0.31
8,UAACAGCGGGCCACAGCAGAAGCGUUCACGUCGCCGCCCCUGUCAGAUUCUGGUGAAUCUGCGAAUUCCGCUGUAUAUCUC,0.22
9,UAACAGCGGGCCACAGCGGUAGCGUUCACGUCGCAGCUCCUGUCGGAUUCUGGUGAAUCUGCGAAUACUGCUGUAUACCUC,0.03
10,UAACAGCGAGCCUCUGCAGAAGCGUUCACGUCGCAGCCCCUGUCAGUUUCUGGUGAAUCUGCGAAUUCUGCUGAAUAUCUC,0.36
11,UAACAGAGGGCCACAGCAGAAGCGUUCACGUCGCAGCCCCUGUCAGAUUCUGGUGAAUCCGCGUAUUCUGCUGUAUAUCUC,0.14
12,UAACAGCGGGCCACAGCAGAAGCGUUUGCGUCGCAGCCCCUGUCAGAUUCCGGUGAAUCUGCGAAUUCUGCUGUAUACCUC,0.05
13,UAACAGCGGGCCACAGCAGAAGCAUUCACGUCGCAGCCCCUGUCAGAUUCUGGUGAAUCUGCGAAUUCCGCCGAAUAUCUC,0.2
14,UAACAGAGGGCCACAGCAGAAGCGUUCACGUCGCAGCCCCUGUCAGAUUCUGGCGAAUCCGCGGAUUCUGCUGUAUAUCUC,0.06
15,UAACAGCGGGCCACAGCAGAAGCGUUCUCGUCGCAGCCCCUGUCAGAUUCCGGGGAAUCUGCGAAUUCUGCUGUAUAUCUC,0.19
16,UAACAGCGGGCCACAGCAGAAGCCUUCACGUCGCGGCCCCUGUCAGAUUCUGGUGAGUCUGCGAACUCUGCUGUAUAACUC,0.04
17,UAACAGAGGGCCACAGCAGAAGCGUUCACGUCGCAGCCCCUGUCAGAUUCUGGUGAAUCUGCGAAUUCUGCAGUAUGCCUC,0.28
18,UAACAGCGGGCCACUGCAGAAGCGUUCACGUCGCAGCCCCUGUCAGAUUCUGGUGAAUCGGCGAAUUCUGCUGUAUAUCUC,0.12
19,UAACAGCGGGCCACAGUAGAAGCGUUCACGUCGCAGCCCCUGUCAGUUUCUGGUGAAUCUGCGAAUUCUGCUGUAUAUCUC,0.41
20,UAACAGCGGGCCGCAGCAGAAGCGUUCACGUCGCAGCCCCUGUCAGAUUCUGGUGAAUCUGCGAAUUCUGCGGUAUAUCUC,0.17
21,UAACAGCGGGCCACAGCAGAAGCGUUCACGACGCAGCCCCUGGCAGAUUCCGGUGAACCUGCGAAUUCUGCUGUAUAUCUC,0.1
22,UAACAGCGGGCCACAGCAGAAGCGUUCACGUCGCAGCCCCUGCCAGAUCCUGGUGAAUCUGCGAAUUCCGCUGUAUAUCUC,0.64
23,UAACAGCGGGCCACAGUAGAAGCGUUCACGUCGCAGCCCCGGUCAGAUUCUGGUGAAUCUGCGAAUUCUGCUGUAUAUCUC,0.08

row,Variant,self-cleavage
1,UAACAGCGGGCCACAGCAGGAGCGUUCACGUCGCAGCCCCUGUCAGAUUCUGGUGAAUCUGCGAAUUCUGCUGAAUUUCUC,0.46
2,UAACAGAGGGCCACAGCAGAAGCGUUCACGUCGCAGCCCCUGUCAGAUUCUGGUGAACCUGCGGAUUCUGCUGUAUAUCGC,0.06
3,UAACAGCGGGCCACAGCAGAAGUGUUCACGUCGCAGCCCCUGUCAGAUUCAGGUGGAUCUGCGAAUUCUGCUGUAUAUCUC,0.09
4,UAACAGAGGGCCACAGCAGAAGCGUUCACGUCGCAGCCCCUGUCAGAUUCUGGUGAAUCUGCGAAUUCCGCUGUAUUUCUC,0.13
5,UAACAGAGGGCCACAGCAGAAGCGUUCACGUCGCAGCCCCUGUCAGAUACUGGUGAAUCCGCGAAUACCGCUGUAUAUCUC,0.06
6,UAACAGCGGGCCGCAGCUGAAGCGUUCACGUCGCAGCCCCUGCCAGAUUCUGGUGAAUCUGCGAAUUCUGCUGUAUAUCUC,0.22
7,UAACAGCGGGCCACAGCAGAAGCGUUCGCGUCGUAGCCCCCGUCAGAUUCUGGCGAAUCUGCGAAUUCUGCUGUACAUCUC,0.1
8,UAACAGCGGGCCACGGCAGAAGCUCCCACGUCGCAGCCCCUGUCAGCUUCUGGUGAAUCUGCGAGUUCUGCUGUAUAUCUC,0.04
9,UAACAGCGGGCUACAGCAGAAGCGUCCACGUCGCAGCCCCUGUCAGAUUCUGGUGAAUCUGCGAAUUCUGCAGUAUAUCUC,0.05
10,UAACAGCGGGCCACAGCAGAAGCGUUCGCGUUGCAGCCCCUGUCAGAUUCUGCUGAAUCUGCGAAUUCUGCUGUAUGCCUC,0.13
11,UAACAGAGGGCCACAGCAGAAGCGUUCACGUCGCAGCCCCUGUCAGAUUCUGGUGAAUCAGCGGAUCCUGCUGUAUAUCUC,0.07
12,UAACAGCGGGCCACAGCAGAAGCGUUCGCGUCGUAGCCACUGUCAGAUUCUGGUGAAUCUGCGAAUUCCGCUGUAUAUCUC,0.11
13,UAACAGCGGGCCACAGCAGAGGCGUUCACGUCGCAGCCCCUGUCAGAUUCUGGUGAAUCUGCGAAUUCUGCUGUAUACCUC,0.29
14,UAACAGCGGGCCACAGCAGAAGCGUUCACGUCGCAGCCCCUGUCAGAUUCCGGUGAAUCUGCGAUUUCUGCUGUAUACCCC,0.04
15,UAACAGCGGGCCACAGCAGAAGCGUUCACGUCGCAGCCCCUGUCAGAUUCUGGCGAAUCUGCGAAGUCUGCUGUAUAUCCC,0.06
16,UAACAGCGGGCCACAGCAUAAGCGUUCACGUCGCAGCCCCUGUCAGAUUCUGGUGAAUCUGCGAAUUCUGCAGUAUAUCUC,0.23
17,UAACAGCGGGCCACAGCAGAAGCGUUCACGCCGCAGCCCCUGUCAGAUCCCGGUGAAUCUGCGAAUUCUGCUGUAUACCUC,0.19
18,UAACAGCGGGCCACAGCAGAAGCGUUCACGUCGCAGCCCCUGUCAGAUUCAGGUGAAUCUGCGGACUCUGCCGUAUAUCUC,0.18
19,UAACAGCGGGCCGCAGCAGAAGCGUUCACGUCGCAGCCCCUGUCAGAUUCUGGUGAAUCUUCGAAUUCAGCUGCAUAUCUC,0.12
20,UAACAGCGGGCCACAGCAGAAGCGUUCACGUCGCAGCCCCUGUCGGAUUCUGGUGAACCAGCGAAUUCCGCUGUAUAUCUC,0
21,UAACAGCGGGCGACAGCAGAAGCGUUCACGUCGCAGCCCCUGCCGGAUUCUGGUGAAUCUGCGAACUCUGCUGUAUAUCUC,0.04
22,UAACAGAGGGCCACAGCAGAAGCGUUCACGUCGCAGCCCCUGUCAGAUACUGGUGAAUCUGCGAAUUCUGCUGUAUGUCUC,0.08
